Out of some 350,000 compounds screened, about 31,000 (8.9%) were called active. This list was built around the results that the source calls inconclusive (neither active nor inactive); the mix of calls is not that of the screen. Calls follow the shape of the dose curve; as a rule, active = well fitted inhibition curve with a large enough effect; inconclusive = small, poorly fitted or top-dose-only effect; inactive = no such curve, though single readings can be large or run the other way. Potencies of inconclusive entries are doubtful fits and often do not repeat.
What follows are compounds tested against Histone-lysine N-methyltransferase EHMT2 (Homo sapiens) (UniProt Q96KQ7) (assay: qHTS Assay for Inhibitors of Histone Lysine Methyltransferase G9a). Conditions: G9a H3K9 monomethylation, AlphaScreen, 2 h; activity, negative = inhibition: at 59 µM (top of the series) unless noted.
UniProt Q96KQ7, sequence (Q96KQ7 whole entry, looked up): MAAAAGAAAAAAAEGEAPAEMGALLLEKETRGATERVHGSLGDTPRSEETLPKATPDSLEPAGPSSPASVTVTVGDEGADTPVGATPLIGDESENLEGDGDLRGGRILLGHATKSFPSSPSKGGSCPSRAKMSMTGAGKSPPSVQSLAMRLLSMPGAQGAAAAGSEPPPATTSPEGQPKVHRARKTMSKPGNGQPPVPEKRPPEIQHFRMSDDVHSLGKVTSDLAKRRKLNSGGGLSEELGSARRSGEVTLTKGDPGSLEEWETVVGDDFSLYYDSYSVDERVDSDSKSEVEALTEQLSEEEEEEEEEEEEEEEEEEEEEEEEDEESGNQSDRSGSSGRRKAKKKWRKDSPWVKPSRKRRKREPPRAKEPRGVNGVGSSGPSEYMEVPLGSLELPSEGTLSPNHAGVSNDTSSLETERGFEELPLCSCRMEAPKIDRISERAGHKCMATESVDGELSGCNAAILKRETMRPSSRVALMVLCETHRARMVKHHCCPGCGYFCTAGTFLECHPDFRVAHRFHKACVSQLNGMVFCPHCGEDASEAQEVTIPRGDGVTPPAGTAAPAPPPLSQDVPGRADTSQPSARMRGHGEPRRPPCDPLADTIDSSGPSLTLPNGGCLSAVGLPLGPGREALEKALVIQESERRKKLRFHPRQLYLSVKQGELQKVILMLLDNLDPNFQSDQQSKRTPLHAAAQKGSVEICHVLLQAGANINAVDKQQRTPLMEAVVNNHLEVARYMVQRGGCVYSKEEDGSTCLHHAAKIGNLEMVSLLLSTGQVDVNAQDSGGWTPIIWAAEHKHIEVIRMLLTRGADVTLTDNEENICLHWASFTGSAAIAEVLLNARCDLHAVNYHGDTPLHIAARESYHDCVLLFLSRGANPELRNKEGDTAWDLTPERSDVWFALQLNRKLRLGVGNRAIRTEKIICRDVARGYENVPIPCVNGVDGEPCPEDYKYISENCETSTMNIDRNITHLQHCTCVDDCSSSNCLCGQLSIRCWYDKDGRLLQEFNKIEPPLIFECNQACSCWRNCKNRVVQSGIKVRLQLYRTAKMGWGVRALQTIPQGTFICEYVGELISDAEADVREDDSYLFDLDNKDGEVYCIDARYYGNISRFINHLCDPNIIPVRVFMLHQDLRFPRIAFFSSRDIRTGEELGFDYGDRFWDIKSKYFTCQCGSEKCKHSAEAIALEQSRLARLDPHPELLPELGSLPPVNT
Summary of the method: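 Signal arises when biotinylated H3K9 peptide, once monomethylated, bridges streptavidin donor and antibody-captured acceptor beads. Enzyme at 20 nM was preincubated 15 min with test compounds; peptide 500 nM and SAM 20 uM then reacted for 2 h.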
% is scaled to controls: 0 for no effect and ±100 for the full control effect; potency is read from the fitted curve at half-maximal effect; tags tell the direction and shape of the fitted curve.
Also: nearly all actives have a fitted effect of over 75% in size.

Row | Structure (SMILES) | Potency | activity, negative = inhibition
1 | O=C(NCC(=O)N1CCN(c2ccccc2F)CC1)c1cccs1 | inconclusive: 56.2 µM [inhibitor, partial curve, poor fit] | 
2 | Cc1cc(C(=O)C(=O)O)c(C)n1-c1ccc(Cl)c(Cl)c1 |  | inconclusive: -54.6% [inhibitor]
3 | CCCn1nc(Oc2nc(SC)nc(N(C)C)n2)ccc1=O | inconclusive: 89.1 µM [inhibitor, partial curve, poor fit] | 
4 | COC(=O)c1ccc(-c2ccco2)n1Cc1cccc(C)c1 | inconclusive: 3.16 µM [inhibitor, single point] | 
5 | C=C(C)CC1Nc2ccccc2NC1CC(=C)C (stereo not given) | inconclusive: 4.47 µM [inhibitor, partial curve, poor fit] | 
6 | COc1cc(/C=C/C(=O)c2ccccc2O)cc(OC)c1OC | active: 44.7 µM | 
7 | O=C(CCNS(=O)(=O)c1ccc(Cl)cc1)N1CCCC1 | inconclusive: 31.6 µM [inhibitor, partial curve, poor fit] | 
8 | CCN(CC(=O)Nc1ccccc1-c1ccccc1)Cc1nc2ccccc2c(=O)[nH]1 | inconclusive: 89.1 µM [inhibitor, partial curve, poor fit] | 
9 | Cc1ccc(/C=C/S(=O)(=O)NCC(=O)O)cc1 | inconclusive: 50.1 µM [inhibitor, partial curve, poor fit] | 
10 | Cc1[nH][nH]c(=O)c1N=Nc1ccc(F)cc1 | inconclusive: 44.7 µM [inhibitor, partial curve] | 
11 | Oc1ccc(/C=N/N2CCN(C3c4ccccc4-c4ccccc43)CC2)c(O)c1 | active: 39.8 µM | 
12 | CN(C)S(=O)(=O)c1ccc(N2CCCC2)c(C(=O)NCc2ccccc2)c1 | inconclusive: 22.4 µM [inhibitor, single point] | 
13 | Cc1nc(SCC(=O)CC(=O)OC(C)C)c(C#N)c(C)c1C | inconclusive: 2 µM [inhibitor, partial curve, poor fit] | 
14 | COc1ccc(N2CCN(S(=O)(=O)c3c(C)[nH]c(=O)[nH]c3=O)CC2)cc1 | inconclusive: 10 µM [inhibitor, partial curve] | 
15 | COc1ccc(CCNC(=O)C(=O)Nc2ccc(C)cc2)cc1OC | inactive | 
16 | CCCCC(=O)NC(c1ccc(N(CC)CC)cc1)c1ccc2cccnc2c1O (stereo not given) | inactive | 
17 | O=C(Cc1ccc(F)cc1)N1CCOCC1 | inactive | 
18 | COc1cccc(C(=O)NCCS(=O)(=O)NCC2CCCO2)c1 (stereo not given) | inconclusive: 89.1 µM [inhibitor, single point] | 
19 | Oc1oc(-c2ccco2)nc1C=Nc1ccccc1 |  | inactive: -1.25% [at 12.7 µM]
20 | CN(CC(=O)Nc1ccc(F)cc1)C(=O)C1Cc2ccccc2CN1S(C)(=O)=O (stereo not given) | inconclusive: 89.1 µM [inhibitor, partial curve, poor fit] | 
21 | COc1ccc(N/N=C(\C=N\O)C(=O)c2ccc(OC)cc2)cc1 | active: 50.1 µM | 
22 | Cc1cc(C(=O)COC(=O)c2cc(Cl)c(O)c(Cl)c2)c(C)n1C |  | inactive: -0.942% [at 12.7 µM]
23 | CCN(c1ccccc1)S(=O)(=O)c1cccc(C(=O)NCC(c2cccs2)N2CCOCC2)c1 (stereo not given) | inactive | 

Row | Structure (SMILES) | Potency | activity, negative = inhibition
24 | CC(=O)c1ccc(Oc2nc(C)nc3c2oc2ccccc23)cc1 | inactive | 
25 | Cn1c(N)c(C(=O)COC(=O)c2cc(C(F)(F)F)nc3ccccc23)c(=O)n(C)c1=O | inconclusive: 89.1 µM [inhibitor, single point] | 
26 | CC12CCC(=O)N1C(C(=O)Nc1ccc(Cl)c(Cl)c1)CS2 (stereo not given) | inconclusive: 50.1 µM [inhibitor, partial curve, poor fit] | 
27 | CCC(=O)Nc1ccc2c(c1)nc1n2CCN(C2CCCCC2)C1 |  | inconclusive: -75.3% [inhibitor] [at 12.7 µM]
28 | Cc1ccc2[nH]c(CCN(C)C)c(CC#N)c2c1 | inconclusive: 15.8 µM [inhibitor, partial curve, poor fit] | 
29 | COc1cc(-c2cccs2)cc(=O)c2c(C)oc(C)c12 | inconclusive: 39.8 µM [inhibitor, single point] | 
30 | O=C(N/N=C/c1cccs1)c1cnccn1 | inconclusive: 28.2 µM [inhibitor, single point] | 
31 | O=C(CCS(=O)(=O)c1ccc(Br)cc1)NCc1cccs1 |  | inconclusive: -70.7% [inhibitor]
32 | CCOC(=O)c1c(NC(=O)CSc2ncccn2)sc2c1CCN(Cc1ccccc1)C2 | inconclusive: 0.316 µM [inhibitor, full curve, poor fit] | 
33 | COC(=O)c1nnn(-c2nonc2N)c1CSc1nnc(N)s1 | inconclusive: 50.1 µM [inhibitor, partial curve, poor fit] | 
34 | CC(=O)N1CCCc2cc(S(=O)(=O)N3CCC(C)CC3)ccc21 | inactive | 
35 | CC(C)(C)OC(=O)N1CCC(C(=O)N2CCCCCC2)CC1 | inactive | 
36 | N#Cc1ccc(C(=O)NCC2CCCCC2)cc1 | active: 50.1 µM | 
37 | O=C(Nc1ccccc1F)c1ccc(-n2cncn2)nc1 | inconclusive: 89.1 µM [inhibitor, single point] | 
38 | O=C(c1ccc(Cl)cc1)C1C2C(=O)N(c3ccccc3)C(=O)C2C2CCCN21 (stereo not given) | active: 8.91 µM | 
39 | CCn1c(O)c(/C=C2\C=NN=C2c2ccccc2)sc1=S | inconclusive: 0.891 µM [inhibitor, full curve, poor fit] | 
40 | CS(=O)(=O)N1Cc2ccccc2CC1C(=O)OCC(=O)Nc1ccc2ccccc2c1 (stereo not given) | inconclusive: 79.4 µM [inhibitor, single point] | 
41 | CCCCOc1ccc(CNC(=O)C2COc3ccc(OC)cc3C2)cc1 (stereo not given) | inactive | 
42 | C=CCn1c(CNS(=O)(=O)c2ccc(F)cc2)n[nH]c1=S |  | inactive: 22.7% [at 12.7 µM]
43 | O=C(COC(=O)c1n[nH]c2ccccc12)Nc1ccc([N+](=O)[O-])cc1 | inconclusive: 15.8 µM [inhibitor, partial curve] | 
44 | COc1cc(/C=C/C(=O)O)cc(S(=O)(=O)N(CC(C)C)CC(C)C)c1OC | inconclusive: 89.1 µM [inhibitor, partial curve, poor fit] | 
45 | COc1ccc(CN(Cc2ccco2)c2cnc(S(C)(=O)=O)nc2C(=O)Nc2ccc(F)cc2)cc1 | inconclusive: 3.55 µM [inhibitor, partial curve, poor fit] | 

Reference: PubChem BioAssay AID504332 (National Center for Advancing Translational Sciences (NCATS), 2011)
